# Laboratory results as given in paper PMC4336329 (PLoS ONE, 2015).
# About 2,200 (0.71%) of roughly 310,000 compounds showed an effect of 50% or more. The effect is printed as a negative number. This is one part of the list.
# Target: human ether-à-go-go-related gene (hERG) potassium channel (human, UniProt Q12809)
# Experiment: primary screen, population patch clamp on CHO cells stably expressing hERG
# Sequence of human ether-à-go-go-related gene (hERG) potassium channel (Q12809 whole entry, looked up): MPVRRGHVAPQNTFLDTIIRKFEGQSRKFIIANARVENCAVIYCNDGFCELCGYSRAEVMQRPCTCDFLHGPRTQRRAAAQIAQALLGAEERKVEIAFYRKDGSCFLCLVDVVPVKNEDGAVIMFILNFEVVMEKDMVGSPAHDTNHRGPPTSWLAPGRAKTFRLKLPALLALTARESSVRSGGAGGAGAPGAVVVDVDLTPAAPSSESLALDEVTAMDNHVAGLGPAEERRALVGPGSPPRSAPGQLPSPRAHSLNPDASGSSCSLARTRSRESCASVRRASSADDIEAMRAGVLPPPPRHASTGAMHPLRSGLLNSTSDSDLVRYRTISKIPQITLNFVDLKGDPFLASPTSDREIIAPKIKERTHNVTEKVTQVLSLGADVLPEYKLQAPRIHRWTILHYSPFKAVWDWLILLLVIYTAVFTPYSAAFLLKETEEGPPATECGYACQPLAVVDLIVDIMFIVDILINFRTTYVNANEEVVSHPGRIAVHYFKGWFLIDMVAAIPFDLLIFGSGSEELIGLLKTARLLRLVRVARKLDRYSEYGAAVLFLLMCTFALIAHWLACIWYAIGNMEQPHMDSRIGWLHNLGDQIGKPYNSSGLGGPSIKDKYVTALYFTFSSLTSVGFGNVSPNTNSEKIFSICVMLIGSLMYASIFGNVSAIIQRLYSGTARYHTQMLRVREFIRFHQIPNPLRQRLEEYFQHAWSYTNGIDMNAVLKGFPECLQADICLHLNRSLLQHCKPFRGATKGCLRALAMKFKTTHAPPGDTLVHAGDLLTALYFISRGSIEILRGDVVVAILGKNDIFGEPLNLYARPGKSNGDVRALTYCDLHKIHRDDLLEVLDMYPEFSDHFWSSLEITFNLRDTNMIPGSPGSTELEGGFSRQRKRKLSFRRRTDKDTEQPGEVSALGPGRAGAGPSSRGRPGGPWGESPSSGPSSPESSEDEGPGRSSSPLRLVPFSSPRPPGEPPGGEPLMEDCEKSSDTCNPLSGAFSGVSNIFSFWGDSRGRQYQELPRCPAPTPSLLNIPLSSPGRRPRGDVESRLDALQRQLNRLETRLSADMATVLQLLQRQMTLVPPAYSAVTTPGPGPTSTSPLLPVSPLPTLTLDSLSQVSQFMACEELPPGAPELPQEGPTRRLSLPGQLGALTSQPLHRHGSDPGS
row,SMILES,"hERG current change (%, negative = inhibition) at 1uM [%]"
1,O=C(NCCc1ccccc1)c1ccc2c(c1)OCCO2,16.9
2,O=C1CC(C(F)(F)C(F)(F)C(F)(F)C(F)(F)F)=Nc2ccccc2N1,10.4
3,COc1ccc(OC(C)C(=O)NC2CCCCCCC2)cc1 (stereo not shown),14.6
4,C=CCn1c(SCC(=O)c2ccc(O)c(O)c2)nnc1-c1ccc(OC)cc1,12.7
5,COc1cc(OC)nc(Oc2cccc(C(F)(F)F)c2)n1,7.75
6,NC(=O)CSc1nnc(-c2cccnc2)n1CCc1ccccc1,9.9
7,COC(=O)c1ccc(NS(=O)(=O)c2ccccc2)o1,17.9
8,Cc1cc(OC(C)C(=O)NCC2CCC(C(=O)O)CC2)c2c(C)c(C)c(=O)oc2c1 (stereo not shown),6.75
9,COc1ccc(S(=O)(=O)N2CC(O)C[C@H]2C(=O)OCC(=O)N2CCCCCC2)cc1 (stereo partly shown),23.1
10,Cc1cc(Nc2c(C)cccc2C)n2nc(C)nc2n1,11.2
11,Cc1[nH]c2ccccc2c1N=Nc1ccccc1F,7.58
12,N#Cc1nc(Cc2ccccc2)oc1NCCN1CCOCC1,-0.875
13,Cc1ccc(C2CC(=O)Nc3cc4c(cc32)OCCO4)s1 (stereo not shown),11.7
14,Cc1ccccc1OCCC(=O)Nc1ccc2c(C)cc(=O)oc2c1,16.7
15,COc1ccc(/C=N/NC(=O)c2ccc(NS(=O)(=O)c3cccs3)cc2)cc1,8.83
16,COc1ccc(CN(Cc2ccc(C(=O)O)cc2)C(=S)Nc2ccccc2F)cc1OC,9.57
17,COc1cc(OC)c(NC(=O)CCNS(=O)(=O)c2cc(Br)cnc2N)cc1Cl,11.5
18,CC(C)=NNc1nc2c(c(=O)n(C)c(=O)n2C)n1CCc1ccccc1,6.12
19,Cc1ccc(S(=O)(=O)NC(=O)c2cc(C)n(-c3ccc(N(C)C)cc3)c2C)cc1,-4.43
20,CCCNC(=O)C(NS(=O)(=O)c1ccc2c(c1)c(=O)n(C)c(=O)n2C)c1ccccc1 (stereo not shown),7.45
21,Nc1ccc(SCc2nc3cccc4c3n2CCC4)cc1,2.14
22,O=C(c1cc(-c2ccc(Cl)cc2)on1)N1CCCC1,8.28
23,Cc1cc(SCc2c(F)cccc2Cl)nc(=O)[nH]1,17.9

row,SMILES,"hERG current change (%, negative = inhibition) at 1uM [%]"
1,CCc1ccc(/C=C2\CN(CC)Cc3c2nc2ccccc2c3C(=O)O)cc1,11
2,O=C(NCC1CCCCC1)c1cccc(Br)c1,-0.514
3,COc1ccccc1-c1nc(C#N)c(N2CCC(C(N)=O)CC2)o1,8.21
4,O=C(NC1CCCc2c1cnn2-c1cc(F)cc(F)c1)c1ccccn1 (stereo not shown),2.28
5,Cc1csc(NC(=O)CSc2nnc(C)s2)n1,3.04
6,CN1C(=O)Cc2cc(S(=O)(=O)N3CCN(c4ccc(Cl)cc4)CC3)ccc21,7.62
7,COc1cc(CNCCc2ccc(S(N)(=O)=O)cc2)ccc1OCC(=O)NC(C)(C)C.Cl,9.9
8,O=C(O)c1ccc(-n2c(=O)c3ccccc3c3ccccc3c2=O)cc1,13.5
9,CCC(C(=O)NC1CCCC1)N(C(=O)Cn1nnc(-c2ccc(OC)c(OC)c2)n1)c1cccc(O)c1 (stereo not shown),6.72
10,CCOC(=O)c1cn[nH]c1NC(=S)Nc1ccccc1,8.28
11,Cc1cccc(N=c2c([N+](=O)[O-])nn(-c3ccc(Cl)cc3)n2O)c1,11.7
12,COc1cc2[nH]c(C(=O)Nc3ccc4c(c3)OCCO4)cc2c(OC)c1OC,14.6
13,COc1cccc(NS(=O)(=O)c2csc(C(N)=O)c2)c1,19.7
14,COC(=O)c1sc(=S)n(-c2ccc(Cl)cc2)c1C,13.7
15,CCN(CC)CCN1C(=O)C(O)=C(C(=O)c2ccc(C)o2)C1c1ccccn1 (stereo not shown),7.87
16,O=C(NCc1cccs1)NC1CCCCC1,6.32
17,CC(C)C(=O)Nc1nnc(CCN2CCOCC2)s1,-0.579
18,CN1CCN(C(=O)C2=C[C@@H](C3CCCCC3)C[C@@H](OCc3ccc(CO)cc3)O2)CC1,3.86
19,O=C(CC1Nc2ccccc2NC1=O)NCC1COc2ccccc2O1 (stereo not shown),8.99
20,COc1ccc(CNc2nc3ccccc3n2C(C)C)c(O)c1,10.3
21,O=C(NCCc1ccccc1)c1cc(-c2ccc3c(c2)OCO3)on1,4.69
22,COc1ccccc1C(=O)N1CCc2ccccc21,11.3
23,Cc1ccc(NC(=O)CN2CCN(CCN=CC3=C(O)CC(c4ccc(C)cc4)CC3=O)CC2)cc1 (stereo not shown),-0.746
